Experimental data reported in the antibiotic and cytotoxicity screens of Wong et al. (2023).
Some of the results follow.

tested on: HepG2; assay: cytotoxicity call (relative viability < 0.9); details: 10 µM

Row | SMILES | cytotoxicity call
1 | Cc1noc(C)c1NC(=O)N(C)C[C@H]1Oc2c(NS(=O)(=O)c3cn(C)cn3)cccc2C(=O)N([C@@H](C)CO)C[C@H]1C | inactive
2 | Cc1noc(C)c1S(=O)(=O)Nc1ccc2c(c1)C(=O)N([C@H](C)CO)C[C@H](C)[C@@H](CN(C)Cc1ccccc1)O2 | inactive
3 | CCN(CCCCOC(=O)c1ccc(OC)c(OC)c1)C(C)Cc1ccc(OC)cc1.Cl (stereo not given) | active
4 | C[C@@H]1CN([C@H](C)CO)C(=O)c2cc(NC(=O)C3CCCCC3)ccc2O[C@@H](C)CCCCO[C@@H]1CN(C)C(=O)Nc1cccc2ccccc12 | active
5 | C[C@H](CO)N1C[C@H](C)[C@H](CN(C)C(=O)c2ccc3c(c2)OCO3)Oc2ncc(C#Cc3ccccc3F)cc2C1=O | inactive
6 | C[C@H](CO)N1C[C@H](C)[C@H](CN(C)S(=O)(=O)c2cn(C)cn2)Oc2ncc(C#Cc3ccc(F)cc3)cc2C1=O | inactive
7 | C[C@H](NC(=O)C[C@@H]1CC[C@@H](NC(=O)CN2CCOCC2)[C@H](CO)O1)c1ccccc1 | inactive
8 | CCS(=O)(=O)N1C[C@]2(CCN(CC2)Cc2cccc(c2)OC)c2c(n(c3cc(ccc23)OC)C)[C@@H]1CO | inactive
9 | COc1ccc(S(=O)(=O)Nc2ccc3c(c2)C(=O)N([C@@H](C)CO)C[C@H](C)[C@@H](CN(C)CC2CC2)O3)cc1 | inactive
10 | Cc1ccc(S(=O)(=O)Nc2ccc3c(c2)CC(=O)N([C@H](C)CO)C[C@@H](C)[C@@H](CN(C)Cc2ccc(C(F)(F)F)cc2)O3)cc1 | active
